This note sets out measurements from the supplement of paper PMC4604168 (melanoma cell lines).

This is one part of the list. Single values are uncertain, as repeats are few or missing.

Test systems include WM115; WM1716; WM1745; WM3526; WM3619; WM451Lu.
What all share (experiment): cell count relative to DMSO control; melanoma cells; higher = more viable cells
Conditions in all cases: library dose: low library concentration; 72 h
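Further: cell number obtained by counting DAPI-stained nuclei in high-throughput microscope images with image analysis software, screen run in 1,536-well plates.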

For the compound `Cn1cc(C2=C(c3cn(C4CCN(Cc5ccccn5)CC4)c4ccccc34)C(=O)NC2=O)c2ccccc21` [Enzastaurin] + Cn1c(=O)n(-c2ccc(C(C)(C)C#N)cc2)c2c3cc(-c4cnc5ccccc5c4)ccc3ncc21 [NVP-BEZ235] (first compound 0.8 µM, partner dose 0.004 µM), the cell count in the assay on WM115 is 123%; with WM1716 it was 129%; in the assay on WM1745, 107%; in the assay on WM3526, 118%; in the assay with WM3619, 99.9%; in the assay with WM451Lu, 156%.

For `Cn1cc(C2=C(c3cn(C4CCN(Cc5ccccn5)CC4)c4ccccc34)C(=O)NC2=O)c2ccccc21` [Enzastaurin] + C[C@]1(c2nc3c(C(N)=O)cccc3[nH]2)CCCN1 [Veliparib] (first compound 0.8 µM, partner dose 1.4 µM), the cell count in the assay on WM115 came to 93.6%; in the assay on WM1716, 83%; with WM1745 it was 85.6%; in the assay on WM3526, 110%; with WM3619, 97.2%; in the assay on WM451Lu, 96.8%.

In the case of `Cn1cc(C2=C(c3cn(C4CCN(Cc5ccccn5)CC4)c4ccccc34)C(=O)NC2=O)c2ccccc21` [Enzastaurin] + CCCCCCCCCCCC1=C(O)C(=O)C=C(O)C1=O [Embelin] (first compound 0.8 µM, partner dose 1.2 µM), the cell count with WM115 is 116%; in the assay on WM1716 it was 110%; in the assay with WM1745, 95.9%; with WM3526 it was 99.1%; in the assay with WM3619, 97.7%; in the assay with WM451Lu, 129%.

`N.N.[Cl][Pt][Cl]` [cisplatin] + Nc1cccc2c1CN(C1CCC(=O)NC1=O)C2=O [lenalidomide] (first compound 1.6 µM, partner dose 1 µM): the cell count in the assay with WM115 amounted to 93%; in the assay with WM1716 it was 111%; in the assay with WM1745, 94.5%; with WM3526, 103%; with WM3619, 82.4%; in the assay on WM451Lu, 103%.

Regarding `C[As](C)SC[C@H](NC(=O)CC[C@H](N)C(=O)O)C(=O)NCC(=O)O` [Darinaparsin] + CN(NC(=O)CC(=O)NN(C)C(=S)c1ccccc1)C(=S)c1ccccc1 [STA4783] (first compound 0.4 µM, partner dose 0.006 µM), the cell count was determined as 74% in the assay on WM115; 72.6% in the assay with WM1716; 34.4% in the assay with WM1745; 99.2% in the assay with WM3526; 69.4% in the assay on WM3619; 110% in the assay on WM451Lu.

With `N.N.[Cl][Pt][Cl]` [cisplatin] + Cn1cncc1[C@@](N)(c1ccc(Cl)cc1)c1ccc2c(c1)c(-c1cccc(Cl)c1)cc(=O)n2C [tipifarnib] (first compound 1.6 µM, partner dose 0.01 µM), the cell count in the assay on WM115 came out at 96.6%; in the assay with WM1716, 85.6%; with WM1745, 95%; in the assay with WM3526 it was 87.6%; in the assay on WM3619, 108%; with WM451Lu, 90.3%.

Take `C[C@]12O[C@H](C[C@]1(O)CO)n1c3ccccc3c3c4c(c5c6ccccc6n2c5c31)CNC4=O` [Lestaurtinib] + O=C(O)C(=O)Nc1sc2c(c1C(=O)O)CCNC2 [TCS401] (first compound 0.004 µM, partner dose 1.66667 µM): the cell count was found to be 110% in the assay on WM115; 109% with WM1716; 84.7% in the assay on WM1745; 83.5% in the assay with WM3526; 130% in the assay with WM3619; 115% with WM451Lu.

For `C[C@]12O[C@H](C[C@]1(O)CO)n1c3ccccc3c3c4c(c5c6ccccc6n2c5c31)CNC4=O` [Lestaurtinib] + C=CCn1c(=O)c2cnc(Nc3ccc(N4CCN(C)CC4)cc3)nc2n1-c1cccc(C(C)(C)O)n1 [MK1775] (first compound 0.004 µM, partner dose 0.02 µM), the cell count with WM115 was 90.4%; in the assay on WM1716, 85.7%; in the assay on WM1745 it was 82.8%; in the assay with WM3526, 89.6%; in the assay with WM3619, 54.6%; in the assay with WM451Lu it was 94.3%.

For `C[C@]12O[C@H](C[C@]1(O)CO)n1c3ccccc3c3c4c(c5c6ccccc6n2c5c31)CNC4=O` [Lestaurtinib] + OCc1c[nH]c2ccccc12 [Indole-3-carbinol] (first compound 0.004 µM, partner dose 0.8 µM), the cell count came to 107% in the assay on WM115; 122% in the assay on WM1716; 109% in the assay with WM1745; 79.3% with WM3526; 126% in the assay on WM3619; 90.8% in the assay on WM451Lu.

As to `Cn1cc(C2=C(c3cn(C4CCN(Cc5ccccn5)CC4)c4ccccc34)C(=O)NC2=O)c2ccccc21` [Enzastaurin] + OCc1c[nH]c2ccccc12 [Indole-3-carbinol] (first compound 0.8 µM, partner dose 0.8 µM), the cell count in the assay on WM115 amounted to 111%; with WM1716 it was 98.4%; with WM1745 it was 101%; in the assay on WM3526, 99.6%; in the assay with WM3619 it was 89.5%; with WM451Lu it was 99.6%.

For the compound `C[As](C)SC[C@H](NC(=O)CC[C@H](N)C(=O)O)C(=O)NCC(=O)O` [Darinaparsin] + Cn1c(Nc2ccc(C(F)(F)F)cc2)nc2cc(Oc3ccnc(-c4ncc(C(F)(F)F)[nH]4)c3)ccc21 [CHIR265] (first compound 0.4 µM, partner dose 0.08 µM), the cell count in the assay on WM115 amounted to 53.6%; in the assay with WM1716, 85.3%; in the assay with WM1745, 73%; in the assay with WM3526, 50.1%; in the assay on WM3619, 68%; in the assay with WM451Lu it was 85.2%.

As for `Cn1cc(C2=C(c3cn(C4CCN(Cc5ccccn5)CC4)c4ccccc34)C(=O)NC2=O)c2ccccc21` [Enzastaurin] + NC(=O)Nc1cc(-c2cccc(F)c2)sc1C(=O)N[C@H]1CCCNC1 [AZD7762] (first compound 0.8 µM, partner dose 0.02 µM), the cell count with WM115 came to 97.8%; in the assay with WM1716, 84.6%; in the assay with WM1745, 105%; with WM3526 it was 78.1%; with WM3619 it was 82.6%; in the assay on WM451Lu, 91.7%.

Take `N.N.[Cl][Pt][Cl]` [cisplatin] + C/C(O)=C(\C#N)C(=O)Nc1cc(Br)ccc1Br [LFM-A13] (first compound 1.6 µM, partner dose 2 µM): the cell count came to 99.1% in the assay with WM115; 94.3% with WM1716; 95% in the assay with WM1745; 81.6% in the assay on WM3526; 82.8% in the assay with WM3619; 99.8% with WM451Lu.

`Cn1cc(C2=C(c3cn(C4CCN(Cc5ccccn5)CC4)c4ccccc34)C(=O)NC2=O)c2ccccc21` [Enzastaurin] + O=C(O)c1ccc2c(c1)nc(Nc1cccc(Cl)c1)c1ccncc12 [CX4945] (first compound 0.8 µM, partner dose 0.4 µM): the cell count worked out at 121% in the assay on WM115; 98.4% in the assay on WM1716; 96.7% with WM1745; 106% in the assay with WM3526; 96.9% with WM3619; 109% in the assay with WM451Lu.

On to `C[As](C)SC[C@H](NC(=O)CC[C@H](N)C(=O)O)C(=O)NCC(=O)O` [Darinaparsin] + CC1(C)NC(=O)N(c2ccc([N+](=O)[O-])c(C(F)(F)F)c2)C1=O [nilutamide] (first compound 0.4 µM, partner dose 1 µM), for which the cell count was 95.9% in the assay on WM115; 97% in the assay on WM1716; 98.7% in the assay on WM1745; 91% in the assay on WM3526; 115% in the assay on WM3619; 85.8% in the assay with WM451Lu.

Turning to `Cn1cc(C2=C(c3cn(C4CCN(Cc5ccccn5)CC4)c4ccccc34)C(=O)NC2=O)c2ccccc21` [Enzastaurin] + O=C(O)[C@@H]1[O][Sb](=[O])([O][Sb]2(=[O])[O][C@H]([C@H](O)CO)[C@H](O)[C@H](C(=O)O)[O]2)[O][C@H]([C@H](O)CO)[C@@H]1O [stibogluconate] (first compound 0.8 µM, partner dose 2 µM), the cell count was 109% in the assay with WM115; 94.3% with WM1716; 92% in the assay on WM1745; 103% with WM3526; 112% in the assay on WM3619; 135% in the assay on WM451Lu.

For the compound `C[C@]12O[C@H](C[C@]1(O)CO)n1c3ccccc3c3c4c(c5c6ccccc6n2c5c31)CNC4=O` [Lestaurtinib] + O=S(=O)(c1ccccc1)N(CC(F)(F)F)c1ccc(C(O)(C(F)(F)F)C(F)(F)F)cc1 [T0901317] (first compound 0.004 µM, partner dose 1.4 µM), the cell count in the assay on WM115 turned out to be 101%; in the assay on WM1716 it was 102%; in the assay on WM1745, 80.4%; with WM3526 it was 75.7%; in the assay on WM3619, 116%; in the assay on WM451Lu, 114%.

As for `C[As](C)SC[C@H](NC(=O)CC[C@H](N)C(=O)O)C(=O)NCC(=O)O` [Darinaparsin] + COc1cc2ncnc(Nc3ccc(Oc4ccccc4)cc3)c2cc1OC [SrcI1] (first compound 0.4 µM, partner dose 2 µM), the cell count in the assay on WM115 amounted to 99.4%; in the assay with WM1716 it was 127%; with WM1745, 81.5%; in the assay with WM3526, 101%; in the assay on WM3619, 113%; with WM451Lu it was 113%.

Take `Cn1cc(C2=C(c3cn(C4CCN(Cc5ccccn5)CC4)c4ccccc34)C(=O)NC2=O)c2ccccc21` [Enzastaurin] + COc1ccc(-c2ccc3c(N4CCOCC4)nc(N4C[C@@H](C)O[C@@H](C)C4)nc3n2)cc1CO [KU0063794] (first compound 0.8 µM, partner dose 0.02 µM): the cell count in the assay with WM115 worked out at 96.3%; with WM1716 it was 96.5%; with WM1745, 103%; in the assay on WM3526 it was 81.7%; with WM3619 it was 91.4%; in the assay with WM451Lu it was 102%.

`Cn1cc(C2=C(c3cn(C4CCN(Cc5ccccn5)CC4)c4ccccc34)C(=O)NC2=O)c2ccccc21` [Enzastaurin] + CN(NC(=O)CC(=O)NN(C)C(=S)c1ccccc1)C(=S)c1ccccc1 [STA4783] (first compound 0.8 µM, partner dose 0.006 µM): the cell count was 103% in the assay with WM115; 76.7% in the assay on WM1716; 26.9% with WM1745; 106% in the assay with WM3526; 45.1% in the assay on WM3619; 108% in the assay with WM451Lu.

Turning to `Cn1cc(C2=C(c3cn(C4CCN(Cc5ccccn5)CC4)c4ccccc34)C(=O)NC2=O)c2ccccc21` [Enzastaurin] + Clc1ccc(Nc2nnc(Cc3ccncc3)c3ccccc23)cc1 [vatalanib] (first compound 0.8 µM, partner dose 2 µM), the cell count with WM115 was determined as 114%; with WM1716, 92.9%; in the assay with WM1745, 105%; in the assay with WM3526, 105%; with WM3619 it was 103%; in the assay on WM451Lu it was 65.4%.

`C[As](C)SC[C@H](NC(=O)CC[C@H](N)C(=O)O)C(=O)NCC(=O)O` [Darinaparsin] + Cc1cc([N+](=O)[O-])ccc1NS(=O)(=O)c1cc(Cl)ccc1Cl [FH535] (first compound 0.4 µM, partner dose 1 µM): the cell count in the assay on WM115 stood at 98%; in the assay on WM1716 it was 81.4%; with WM1745, 90.6%; in the assay on WM3526, 89.3%; with WM3619, 94.6%; with WM451Lu, 109%.

As to `C[C@]12O[C@H](C[C@]1(O)CO)n1c3ccccc3c3c4c(c5c6ccccc6n2c5c31)CNC4=O` [Lestaurtinib] + Cn1c(Nc2ccc(C(F)(F)F)cc2)nc2cc(Oc3ccnc(-c4ncc(C(F)(F)F)[nH]4)c3)ccc21 [CHIR265] (first compound 0.004 µM, partner dose 0.08 µM), the cell count is 67.1% with WM115; 105% in the assay with WM1716; 74.4% in the assay on WM1745; 71.2% in the assay on WM3526; 81.7% with WM3619; 120% in the assay with WM451Lu.

Turning to `N.N.[Cl][Pt][Cl]` [cisplatin] + CCCS(=O)(=O)Nc1ccc(F)c(C(=O)c2c[nH]c3ncc(Cl)cc23)c1F [PLX4720] (first compound 1.6 µM, partner dose 0.08 µM), the cell count is 99.4% in the assay with WM115; 110% in the assay with WM1716; 106% with WM1745; 82.1% in the assay on WM3526; 94.2% with WM3619; 109% with WM451Lu.
